In PubChem BioAssay AID493208 (National Center for Advancing Translational Sciences (NCATS), 2011):
Screen size: about 44,000 compounds; about 340 (0.77%) were called active. About 5% were inconclusive and are not listed. Calls come from the whole dose curve; as a rule, active = well fitted inhibition curve with a large enough effect; inconclusive = small, poorly fitted or top-dose-only effect; inactive = flat fitted curve, though single readings scatter. The list shows a part of the results.

assay: Acumen qHTS Assay for Inhibitors of the mTORC1 Signaling Pathway in MEF (Tsc2-/-, p53-/-) Cells: Sytravon; settings: phospho-rpS6 immunofluorescence/PI, 24 h; series mostly up to 38.3 µM; activity change, negative = inhibition: at the top concentration;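 note: plate controls were DMSO for no effect and rapamycin for full effect; nearly all actives have a fitted effect of over 50% in size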
Outline: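 Read-out: phospho-S6 Alexa-488 intensity over PI intensity per well, scored as % active cells using thresholds from rapamycin (7.5 nM) and DMSO controls. Tsc2-/-, p53-/- MEFs exposed to compound for 24 h; PI cell count recorded as viability.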

Activity change, negative = inhibition, inactive:
COc1cccc(CN2C(=O)c3ccccc3C2C(=O)NCCc2ccccc2)c1 (stereo unspecified) 1.65%, CCC(C)NC(=O)c1ccc(Cn2c(=O)c3cccn3c3cccnc32)cc1 (stereo unspecified) 1.35%, COc1ccc(Nc2nnc(-c3cc4cc(Cl)ccc4oc3=O)s2)cc1 -0.032%, COc1cc(SC)ccc1C(=O)N1CCn2c3c(c4cc(C)ccc42)CCCC31 (stereo unspecified) -3.79%, COc1ccccc1CNC(=O)CSc1nc2nc(C)c(Cc3ccccc3C)c(C)n2n1 0%, O=C(NCc1ccc(Cl)cc1)C1CCN(C(=O)c2cnn(-c3ccccc3)c2-n2cccc2)CC1 3.85%, Cc1ccc(C)c(N2CCN(C(=O)CCc3c(C)nn(-c4ccc(N5CCCC5)nn4)c3C)CC2)c1 0.463%, Cc1ccc(C(=O)Nc2c(C)nc3ccccn3c2=O)cc1 -15.6%, O=C(CCCCCn1c(=O)[nH]c2ccsc2c1=O)NCc1ccccc1 0%, Oc1c(C(c2cccc(Br)c2)N2CCCC2)sc2nc(-c3ccco3)nn12 (stereo unspecified) -3.84%, CCOc1ccc(CNC(=O)Cn2nc(N3CCN(c4ccccc4)CC3)ccc2=O)cc1 -5.76%, COc1cccc(C(=O)Nc2nc3nc(C)c(Cc4ccccc4)c(=O)n3[nH]2)c1 -0.138%, Cc1cccc(N2C(=O)C(CC(=O)Nc3ccccc3)N(C3CCCCC3)C2=O)c1 (stereo unspecified) -11.9%, CCOC(=O)c1c(C)[nH]c(C)c1S(=O)(=O)N(C)CC(=O)N1CCN(c2cccc(C)c2C)CC1 -7.61%, COc1ccccc1C(=O)Nc1ccccc1C(=O)OCc1cc(=O)n2c(C)csc2n1 5.96%, COC(=O)c1ccc(NC(=O)CC2C(=O)N(c3cccc(C)c3)C(=O)N2Cc2ccco2)cc1 (stereo unspecified) -1.66%, CCOC(=O)c1c(C)oc2nc(C)nc(NCCCN3CCN(c4ccccc4OC)CC3)c12 -4.06%, Cc1nn(C)c2c1c(-c1ccccc1)cc(=O)n2Cc1ccc(Br)cc1F -11.8%, O=C(c1cccc([N+](=O)[O-])c1)N1c2nc(-c3ccco3)nn2C2(CCCCC2)[C@@H]2CCCC[C@@H]21 -0.899%, COc1ccc(-c2cc(C(F)(F)F)nc(SCC(=O)N3CCCCC3)n2)cc1 4.47%, CCCCOc1ccc(NC(=O)c2cc3c(n(-c4ccc(Cl)cc4)c2=O)CCCC3=O)cc1 -13.7%, Cc1ccc(CNC(=O)CCCn2c(=O)c3ccccc3n(Cc3ccccc3Cl)c2=O)cc1 5.33%, CCCC(=O)c1cc2c(cc1NC(=O)c1ccccc1F)OCCO2 0.804%, COc1cccc(CNC(=O)C2CCCN(S(=O)(=O)c3ccc4c(ccn4C)c3)C2)c1OC (stereo unspecified) 0.796%, O=C(Cn1c(=O)n(CCCS(=O)(=O)C2CCCCC2)c(=O)c2ccccc21)Nc1ccccc1F -9.83%, Cc1cc(C(=O)Nc2cccc(C(F)(F)F)c2)c2c(C)nn(-c3cccc(F)c3)c2n1 -2.75%, Cc1nn2c3c(cnc2c1-c1ccc(F)cc1)C(=O)CC(c1ccccc1)C3 (stereo unspecified) 1.53%, O=S(=O)(NCCc1csc2nc(-c3ccc(F)cc3)nn12)c1ccc2c(c1)OCCO2 0.362%, CC(=O)Nc1ccc(NC(=O)CC(C)n2ccc(C)n2)cc1 (stereo unspecified) -18.3%, Cc1cc(C)c(-c2csc(-c3cc4ccccc4oc3=O)n2)cc1C 12.1%, CCCN1CCN(CCNC(=O)Nc2cc(Cl)c(OC)cc2OC)CC1 -2.57%, O=C(Nc1nnc(N2CCCC2)s1)Nc1cc(F)ccc1F -0.272%, COc1ccc(NC(=O)CCn2nc(-c3ccc(Cl)cc3)c3ccccc3c2=O)cc1 -4.82%, O=C(NCCc1ccccc1)c1c2c(nc3ccccc13)C(=O)N(C1CCCCC1)C2 -5.78%, Cc1oc(-c2cccc(Cl)c2)nc1CN1CCC(C(=O)NCc2ccc(F)cc2)CC1 -10.5%, CC(=O)c1cccc(NC(=O)C2CCN(c3nnc(-n4cccc4)s3)CC2)c1 -8.17%, COc1cccc(NC(=O)Cc2ccc(NC(=O)N3CCCCc4ccccc43)cc2)c1 1.28%, CCOC(=O)c1c(-c2ccccc2)oc2ccc(OCc3ccc(C)cc3)cc12 4.66%, Cc1cc2c(n1-c1ccc(C(=O)NCc3cccc(Br)c3)cc1)CCC(C)C2 (stereo unspecified) 0.0281%, Cc1cccc(-c2nc3c4ccccc4n(CC(=O)Nc4cc(F)ccc4F)c(=O)n3n2)c1 1.79%, Cc1ccc(N2C(=O)CSC23C(=O)Nc2ccccc23)cc1F (stereo unspecified) -10.4%, CCOc1ccc(C(=O)Nc2c(C)nc(Nc3ccccc3)nc2Nc2ccccc2)cc1OCC -2.07%, COc1ccc(C(=O)Cn2c(=O)n3nc(CCn4nc(C)cc4C)nc3c3cc(OC)c(OC)cc32)cc1 0.0107%, COc1ccc(S(=O)(=O)Nc2c(C)n(C)n(-c3ccccc3)c2=O)cc1Br -4.95%, CC(C)Nc1cc(N2CCN(C3CCCCC3)CC2)c2noc3c2c1C(=O)c1ccccc1-3 2.42%, COc1ccc(CCNc2nc(-c3ccccc3OC)cc(C(F)(F)F)n2)cc1OC -14.8%, COc1ccccc1N1CCN(C(=O)CSc2nc(C)cc(=O)[nH]2)CC1 6.02%, O=C(c1ccc(Br)cc1)N1CCC(c2nc3ccccc3s2)CC1 -2.35%, CCOc1ccc(CNC(=O)C(C)n2ncn3cccc3c2=O)cc1 (stereo unspecified) 0%, CCOC(=O)c1[nH]c(C)c(CCC(=O)Nc2ccc(C)cc2Cl)c1C 0.735%, CCOc1ccccc1CNC(=O)C1=C(C)C(=O)OC12CCN(C(C)=O)CC2 -7.98%, Cc1ccc2c(c1)c1c(c(=O)n(-c3ccccc3C)c(=O)n1Cc1cccc(F)c1)n2C 0.767%, Cc1ccc(Cl)cc1NC(=O)C(NS(=O)(=O)c1ccc2c(c1)CCC(=O)N2)c1ccccc1 (stereo unspecified) 1.1%, Cc1cccc(NC(=O)CC2C(=O)OCCN2Cc2ccccc2)c1 (stereo unspecified) -0.521%, CCc1ccc(NCc2cc3cc(OC)c(OC)cc3n(CC(=O)Nc3ccc(F)cc3)c2=O)cc1 1.59%, CC(C)(C)C(=O)Nc1ccc2nc(SCc3ccccc3)sc2c1 -20.7%, CC1=C(c2ccc(F)cc2)S(=O)(=O)NC1=NCc1ccccc1Cl -10.8%, COc1cccc(CNC(=O)CCn2c(=O)c3cccn3c3cccnc32)c1 5.51%, Cc1ccccc1C(=O)NC(=O)Nc1ccc(-n2nc(C(F)(F)F)cc2C(F)(F)F)cc1 7.32%, COc1ccc2cc(CNc3ccccc3)c(=O)n(CC(=O)Nc3ccc(C(C)=O)cc3)c2c1 -1.38%, CCC(=O)N1CCc2cc(S(=O)(=O)NC(Cc3ccccc3)C(=O)NCc3cccc(OC)c3)ccc21 (stereo unspecified) -12.3%
